# Source: the RNAGym collection of RNA variant scans (doi:10.7554/elife.90254)
# Read counts are not given, so values of variants with three or more changes are uncertain.
# B1: LINE1-full (parent)
# chain: UACGUAGGUGGUUUUCCCCUGAUAGUGCUAAGGGGGCCUGGAAGUUUGGACUGGGCAGAGCUCAACACAGCGUGGCAAAGUGGCUGUGGCUAGACUGCCUCUCUGGAUUCCUCGUCACUCAGCAGGGCAUCUCUGAGAGAAAUGCC
# Variants of: B1
# Assay: self-cleavage, relative activity (ratio to wild type); higher = more cleavage; in vitro, sequencing; the parent is a self-cleaving ribozyme
row,Variant,self-cleavage
1,A42G U47A C76U U100C U119A U143G,2.62
2,A42G U47A C101A G114U,1.06
3,A42G U47A U132A,1.68
4,A42G U47C A57G,0.97
5,A42G U47C A64U,0.9
6,A42G U47C A77G,0.57
7,A42G U47C A141C,0.92
8,A42G U52A A94G U143C,0.16
9,A42G U52A U96C A140U U143A,0.26
10,A42G U52A U102C U130A U134C,2.47
11,A42G U62A A65G,0.04
12,A42G U62A U130C,0
13,A42G U73A U132A,1.59
14,A42G U73C A92G,0.71
15,A42G U73C U104A,0.51
16,A42G U73C U134C,0.38
17,A42G U73C U143A,2.87
18,A42G U81C U102A,1.47
19,A42G U85C U119C,0
20,A42G U87A A138G,0.13
21,A42G U87C U134C U143C,0
22,A42G U91C A138G U143C,0.92
23,A42G U100A A107G,1.05
24,A42G U100A A129G U130C,0.92

row,Variant,self-cleavage
1,A42G U100A U132C A141G,1.04
2,A42G U102G A124G,0
3,A42G U112A A136G,1.23
4,A42G U112C U130C,0.38
5,A42G U115A A124U,0.78
6,A42G U115C U130G,0
7,A42G U130C C145U,0.97
8,A42G U132G A138U,1.02
9,A42G U134C A136U,2.3
10,A42U A50U U62A G105A,0.02
11,A42U A57U C128U A140G,0.04
12,A42U A57U U115A U134C,0.08
13,A42U A57U U143A,0.08
14,A42U A59G A77U A129U,0.57
15,A42U A59G A117U,0.13
16,A42U A59G A129U U132C,0.19
17,A42U A69U A92U U115C,0.02
18,A42U A69U A94G,0
19,A42U A69U C113U A121G A136G,0
20,A42U A77G U108C,1.39
21,A42U A79U C111U,1.21
22,A42U A94G G125U,0.24
23,A42U A124U A140G,0.92
24,A42U C66U U100C U109C C146U,0.02

row,Variant,self-cleavage
1,A42U C68A U104A,0.03
2,A42U G53A A142G,0.79
3,A42U G89A U143A,0.03
4,A42U G93U C110G,0.02
5,A42U U45C A79G,1.15
6,A42U U47A U87C U102C U108C A129U U134A A136U,0.37
7,A42U U47C U87A,0
8,A42U U52A A57C A117C,0.18
9,A42U U52A U73A U100C,2.42
10,A42U U62C A64U,0.06
11,A42U U62C U108C U119A,0.06
12,A42U U81C A124G,0.62
13,A42U U100A U132C,0.96
14,A42U U104C A136U,1.53
15,A42U U104C C120U A129U,2.26
16,A42U U104G A140G,0.43
17,A42U U115C U132C,1.31
18,A43C A57G A136G,0.88
19,A43C A59U A121U,0.33
20,A43C A64G C120U U143C,0.26
21,A43C U46C G86A U104C A142G,0.22
22,A43G A50C A65U G127U,0.32
23,A43G A50G A141G,0.97
24,A43G A50G C118U,0.67

row,Variant,self-cleavage
1,A43G A50G U143C,0.42
2,A43G A57G A79U A140G,1.04
3,A43G A57G A124U A136U A138G,0
4,A43G A57G U143A,0.21
5,A43G A57U A94G,0
6,A43G A57U G97A,0.06
7,A43G A59G A77G,0
8,A43G A59G A78U G93A,0.02
9,A43G A59G U91A,0.19
10,A43G A59G U119A,0
11,A43G A64G G83A U102G,0
12,A43G A64G G83C A117G,0.3
13,A43G A64U C118G U119G,0.84
14,A43G A64U U87C,0
15,A43G A65G G72C,0
16,A43G A65G U85A,0.1
17,A43G A65G U96A A141G,0
18,A43G A67G C90U,0
19,A43G A67U U109C,0
20,A43G A69G U132C U143C,0.25
21,A43G A69U A117C,0.03
22,A43G A77G A117C A141U,2.41
23,A43G A77G A117U U130C,2.91
24,A43G A77G U102A U112A,1.48

row,Variant,self-cleavage
1,A43G A77U U91C U108A A129G U134A,0
2,A43G A77U U96A A129G A136G,0.07
3,A43G A78G U112C,1.87
4,A43G A78U U143C,2.21
5,A43G A79G G89C A138G,0.1
6,A43G A79G U81A,1.38
7,A43G A79G U102C G114A,1.43
8,A43G A79U A94G,0.66
9,A43G A94G U100A,0.49
10,A43G A94G U108C,0
11,A43G A94U U109C,0.14
12,A43G A121C C128A,0.66
13,A43G A121U C128A A136G,0.59
14,A43G A124G A140C,0.91
15,A43G C51A A64U U96C A138G,0.12
16,A43G C51U A65G A92G U104A,0.17
17,A43G C61A U85C A129G,0.03
18,A43G C68U U85A,0.02
19,A43G C84U U87C,0.12
20,A43G G44U G70U U87A A117G,0.07
21,A43G G44U U96C U109C A117G,0.84
22,A43G G49U A59G C71A U104C,0.05
23,A43G G53A A92C,0.15
24,A43G G54A A107U U143C,0.21

row,Variant,self-cleavage
1,A43G G58A U119C U130C,0.12
2,A43G G60A A67G G70C A78G,0.11
3,A43G G60A A78C A121G,0.04
4,A43G G60A G74A U119G G144C,0.06
5,A43G G75U A129G,0.86
6,A43G G80U G114A A142G,1.55
7,A43G G88A A129U,0.03
8,A43G G126A A142G,1.33
9,A43G G127A A136G,1.34
10,A43G G127A A140G,1
11,A43G U45A U62A,0.06
12,A43G U45A U96A G127A,0
13,A43G U45C A129G,0
14,A43G U45C A142G,1.25
15,A43G U45C U85G U102A,0
16,A43G U45C U87C,0
17,A43G U45C U108C,0
18,A43G U45C U112C,0
19,A43G U45C U130C,1.2
20,A43G U46A C63U U91A,0.12
21,A43G U46A U62C,0.03
22,A43G U46A U112C,0.53
23,A43G U46C A57U A138G,0.28
24,A43G U46C A64G U100C,0

row,Variant,self-cleavage
1,A43G U46C U73C U108A,0.48
2,A43G U46C U115C U132C,0
3,A43G U46C U134A,1.96
4,A43G U47A U100C,1.45
5,A43G U47C A141G,1.7
6,A43G U47C U81A U85C A136G,0.41
7,A43G U52A G74C,1.52
8,A43G U52A U73A A141G,1.55
9,A43G U52C A129G,1.92
10,A43G U62C A65G,0.22
11,A43G U62C A77G U115A,0
12,A43G U62C A117G U143A,0.97
13,A43G U62C C71A,0.04
14,A43G U62C U115C,0
15,A43G U73A G105A,2.25
16,A43G U73A U130C,0.7
17,A43G U81C C95A U134C A141G,0.08
18,A43G U85A U96C,0.08
19,A43G U85G U132C U143A,0
20,A43G U102A A136U,1.31
21,A43G U104A A124G,0.23
22,A43G U112A A129U,1.43
23,A43G U119A G135A,1.2
